# The inconclusive results got no clear call from the source; some entries with a clear call stand among them for comparison. For some assays here: A potency beside an inconclusive call is a rough fit, not a confirmed value. Activity calls are given as the source filed them. Unless noted, calls follow the shape of the dose curve; as a rule, active = well fitted curve in the direction sought with a large enough effect in the repeat runs; inconclusive = weak or mixed curves; inactive = no such curve, though single readings can be large; an effect the other way counts as inactive or inconclusive.
# Legend:
# [1] = qHTS assay to identify small molecule agonists of the RXR signaling pathway - cell viability counter screen (AID 1159529); also: nearly all actives have a fitted effect of over 50% in size; also: potency is read from the fitted curve at half-maximal effect; as to activity change, negative = cytotoxicity: % is scaled to controls: 0 for no effect and ±100 for the full control effect
# In short: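 Compounds dissolved in DMSO were pinned onto HEK 293T cells carrying a beta-lactamase reporter under RXR-alpha control and incubated 16 hr. Cytotoxicity was then quantified by CellTiter-Glo luminescence.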
# [2] = target: Cytochrome P450 2C9 (Homo sapiens) (UniProt P11712); assay: Cytochrome P450 Family 2 Subfamily C Member 9 (CYP2C9) small molecule antagonists: luciferase reporter qHTS assay (AID 1671198); also: nearly all actives have a fitted effect of over 50% in size; also: potency is read from the fitted curve at half-maximal effect; as to activity change, negative = inhibition: % is scaled to controls: 0 for no effect and ±100 for the full control effect
# UniProt P11712, sequence (P11712 whole entry, looked up): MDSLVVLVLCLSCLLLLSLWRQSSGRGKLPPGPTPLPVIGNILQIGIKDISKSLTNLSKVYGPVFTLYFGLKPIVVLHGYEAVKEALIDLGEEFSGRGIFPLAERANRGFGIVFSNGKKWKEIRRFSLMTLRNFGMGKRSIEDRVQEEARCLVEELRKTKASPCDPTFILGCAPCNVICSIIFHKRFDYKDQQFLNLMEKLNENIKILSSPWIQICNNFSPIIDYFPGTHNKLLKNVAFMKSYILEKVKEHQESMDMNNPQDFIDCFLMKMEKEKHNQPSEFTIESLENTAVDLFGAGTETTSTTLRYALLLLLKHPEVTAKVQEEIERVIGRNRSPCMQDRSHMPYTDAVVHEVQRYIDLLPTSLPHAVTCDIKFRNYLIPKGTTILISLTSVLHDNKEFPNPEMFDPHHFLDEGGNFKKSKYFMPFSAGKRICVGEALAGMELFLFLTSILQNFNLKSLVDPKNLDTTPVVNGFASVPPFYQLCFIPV
# In short: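 P450-Glo proluciferin substrate with CYP2C9 enzyme; 10 min RT preincubation, then NADPH regeneration 1 h at 37C; luciferin detection reagent 20 min RT, luminescence in relative luminescence units.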
# [3] = qHTS assay for small molecule agonists of the antioxidant response element (ARE) signaling pathway (AID 743202; active = well fitted activation curve with a large enough effect in the signal ratio in the repeat runs, not every such curve was filed as active; inconclusive = weak or mixed curves, or effect the other way; inactive = no such curve, though single readings can be large or run the other way; the % refers to the signal ratio; also: potency is read from the fitted curve at half-maximal effect); conditions: HepG2 ARE-bla reporter, beta-lactamase FRET, 16 h; activation: at 73.3 µM (top of the series) unless noted
# In short: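 HepG2 ARE-bla reporter line, 2,000 cells/well; 5 h preincubation 37 C/5% CO2; compound (DMSO) 16 h 37 C; B/G FRET substrate 2 h RT; fluorescence intensity.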
# [4] = qHTS assay to identify small molecule antagonists of the sonic hedgehog signaling (Shh) pathway (AID 1259369; calls by dose curve; also: potency is read from the fitted curve at half-maximal effect; nearly all actives have a fitted effect of over 45% in size)
# In short: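 Stable Gli1-Luc reporter NIH/3T3 clone; quantitative HTS in stimulated mode with conditioned medium. Luminescence measured after 24hr compound treatment at 37 C.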
# [5] = qHTS assay to identify small molecule antagonists of the progesterone receptor (PR) signaling pathway - cell viability counter screen (AID 1346798); also: potency is read from the fitted curve at half-maximal effect; nearly all actives have a fitted effect of over 50% in size
# In short: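 In the same plates used for the beta-lactamase readout, cell viability of compound- and R5020-treated PR-UAS-bla HEK293T cells (16 hr, 37C) was assessed by CellTiter-Glo luminescence.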
# [6] = qHTS assay to identify small molecule agonists of the progesterone receptor (PR) signaling pathway - cell viability counter screen (AID 1346799; calls by dose curve; also: potency is read from the fitted curve at half-maximal effect; nearly all actives have a fitted effect of over 45% in size)
# In short: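 Multiplexed viability read: CellTiter-Glo luminescence, 30 min RT, following LiveBLAzer FRET measurement on PR-UAS-bla HEK293T cells exposed to compounds 16 hr.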
# [7] = target: Cytochrome P450 2C19 (Homo sapiens) (UniProt P33261); assay: Cytochrome P450 Family 2 Subfamily C Member 19 (CYP2C19) small molecule antagonists: luciferase reporter qHTS assay (AID 1671197); also: potency is read from the fitted curve at half-maximal effect; nearly all actives have a fitted effect of over 65% in size
# UniProt P33261, sequence (P33261 whole entry, looked up): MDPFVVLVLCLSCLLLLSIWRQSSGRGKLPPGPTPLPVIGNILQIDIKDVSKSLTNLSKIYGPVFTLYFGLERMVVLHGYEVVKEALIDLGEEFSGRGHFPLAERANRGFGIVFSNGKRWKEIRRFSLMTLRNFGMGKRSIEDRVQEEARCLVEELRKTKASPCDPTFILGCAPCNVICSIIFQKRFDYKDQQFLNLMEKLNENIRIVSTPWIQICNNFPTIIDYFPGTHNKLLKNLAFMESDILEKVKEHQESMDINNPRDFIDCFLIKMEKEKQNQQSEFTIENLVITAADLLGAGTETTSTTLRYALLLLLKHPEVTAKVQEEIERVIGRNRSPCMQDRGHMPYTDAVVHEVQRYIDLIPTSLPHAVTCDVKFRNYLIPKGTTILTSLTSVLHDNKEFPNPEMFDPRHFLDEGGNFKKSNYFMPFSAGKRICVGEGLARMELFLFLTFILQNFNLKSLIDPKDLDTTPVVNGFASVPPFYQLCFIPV
# In short: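 Luminescent readout of CYP2C19 activity: luciferin product detected 20 min after adding detection reagent. Before that, compound and enzyme-substrate mix preincubated 10 min at room temperature; NADPH-regenerating system started a 1 h, 37C reaction. Ketoconazole as positive control.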
# [8] = target: Cytochrome P450 1A2 (Homo sapiens) (UniProt P05177); assay: Cytochrome P450 Family 1 Subfamily A Member 2 (CYP1A2) small molecule antagonists: luciferase reporter qHTS assay (AID 1671199); also: potency is read from the fitted curve at half-maximal effect; nearly all actives have a fitted effect of over 50% in size
# UniProt P05177, sequence (P05177 whole entry, looked up): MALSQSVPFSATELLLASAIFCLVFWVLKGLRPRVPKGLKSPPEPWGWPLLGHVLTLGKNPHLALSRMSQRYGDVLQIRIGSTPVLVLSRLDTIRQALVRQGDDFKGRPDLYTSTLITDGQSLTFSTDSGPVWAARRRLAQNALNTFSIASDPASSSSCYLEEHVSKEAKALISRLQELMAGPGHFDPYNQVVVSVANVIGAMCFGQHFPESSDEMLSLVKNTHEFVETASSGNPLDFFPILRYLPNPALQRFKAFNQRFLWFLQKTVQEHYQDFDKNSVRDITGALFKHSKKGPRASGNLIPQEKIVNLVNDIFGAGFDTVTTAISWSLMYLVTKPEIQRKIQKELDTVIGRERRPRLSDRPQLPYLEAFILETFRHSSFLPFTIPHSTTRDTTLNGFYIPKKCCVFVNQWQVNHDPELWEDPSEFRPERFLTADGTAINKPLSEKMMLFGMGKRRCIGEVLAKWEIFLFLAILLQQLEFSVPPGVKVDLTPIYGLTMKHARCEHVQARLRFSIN
# In short: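 Steps: enzyme-substrate mix dispensed; test compounds and furafylline control pinned in; 10 min room temperature; NADPH regeneration solution added, 1 h; reaction stopped with luciferin detection reagent; luminescence read after 20 min.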
# [9] = qHTS assay for identifying genotoxic compounds that show differential cytotoxicity against isogenic chicken DT40 cell lines with known DNA damage response pathways - Rev3 mutant cell line (AID 743014); conditions: chicken DT40 Rev3-/- viability, CellTiter-Glo, 40 h; activity, negative = cytotoxicity: at 68.4 µM (top of the series) unless noted; also: potency is read from the fitted curve at half-maximal effect; nearly all actives have a fitted effect of over 55% in size
# [10] = qHTS assay to identify small molecule antagonists of the thyroid receptor (TR) signaling pathway - cell viability counter screen (AID 743064); conditions: GH3.TRE-Luc viability, CellTiter-Fluor, 24 h; activity change, negative = cytotoxic: at 70.3 µM (top of the series) unless noted; also: nearly all actives have a fitted effect of over 50% in size; also: potency is read from the fitted curve at half-maximal effect
# In short: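 CellTiter-Fluor readout, 30 min at 37 °C/5% CO2, following 23.5 h incubation of GH3.TRE-Luc cells with test compound and 1 nM T3 (final).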
# [11] = target: Estrogen receptor beta (Homo sapiens) (UniProt Q92731); assay: qHTS assay to identify small molecule antagonists of the estrogen receptor beta (ER-beta) signaling pathway (AID 1259378; active = well fitted inhibition curve with a large enough effect in the signal ratio in the repeat runs, not every such curve was filed as active; inconclusive = weak or mixed curves, or effect the other way; inactive = no such curve, though single readings can be large or run the other way; the % refers to the signal ratio; also: % is scaled to controls: 0 for no effect and ±100 for the full control effect); conditions: ER-beta-UAS-bla HEK293T, beta-lactamase FRET ratio, 16 h; activity, negative = inhibition: at 92.4 µM (top of the series) unless noted
# UniProt Q92731, sequence (Q92731 whole entry, looked up): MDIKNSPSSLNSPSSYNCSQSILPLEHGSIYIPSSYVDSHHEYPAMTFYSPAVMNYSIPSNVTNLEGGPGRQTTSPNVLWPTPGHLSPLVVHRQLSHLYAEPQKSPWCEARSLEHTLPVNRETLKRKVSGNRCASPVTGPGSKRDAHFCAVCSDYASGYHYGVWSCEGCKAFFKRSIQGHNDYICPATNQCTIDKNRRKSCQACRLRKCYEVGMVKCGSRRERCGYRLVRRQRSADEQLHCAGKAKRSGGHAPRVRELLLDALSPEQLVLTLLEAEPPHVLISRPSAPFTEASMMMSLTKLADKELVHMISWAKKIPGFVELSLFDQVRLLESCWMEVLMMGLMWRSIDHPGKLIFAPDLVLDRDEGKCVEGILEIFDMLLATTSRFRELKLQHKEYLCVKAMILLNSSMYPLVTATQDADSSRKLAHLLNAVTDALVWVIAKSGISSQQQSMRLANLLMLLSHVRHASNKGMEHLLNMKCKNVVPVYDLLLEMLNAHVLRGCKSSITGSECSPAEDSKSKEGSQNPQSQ
# In short: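 ER-beta-UAS-bla HEK293T cells in 2% charcoal-stripped FBS medium treated with compound plus 1nM final 17-beta-estradiol for 16 hr at 37C. Beta-lactamase reporter read by FRET substrate fluorescence after 2 hours at room temperature.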
# [12] = qHTS assay for small molecule disruptors of the mitochondrial membrane potential (AID 720635); conditions: HepG2 mitochondrial membrane potential, Mito-MPS dye ratio; ratio activity, negative = MMP loss: at 83.2 µM (top of the series) unless noted; also: potency is read from the fitted curve at half-maximal effect
# In short: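 HepG2 cells exposed to compound 1 hr at 37C, then Mito-MPS dye 30 min. Ratio read of aggregate (540/590 nm) versus monomer (490/535 nm) fluorescence.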
# [13] = qHTS assay for identifying genotoxic compounds that show differential cytotoxicity against isogenic chicken DT40 cell lines with known DNA damage response pathways - wild type cell line (AID 743012); conditions: DT40 wild type chicken cells viability, CellTiter-Glo, 40 h; activity change, negative = cytotoxicity: at 68.4 µM (top of the series) unless noted; also: nearly all actives have a fitted effect of over 60% in size; also: potency is read from the fitted curve at half-maximal effect
# In short: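 Luminescent ATP viability signal (CellTiter-Glo, 30 min RT) recorded after wild type DT40 cells were incubated with compounds for 40 h at 37 C/5% CO2.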
# [14] = target: Peroxisome proliferator-activated receptor gamma (Homo sapiens) (UniProt P37231); assay: qHTS assay to identify small molecule antagonists of the peroxisome proliferator-activated receptor gamma (PPARg) signaling pathway (AID 743191; calls by dose curve; also: % is scaled to controls: 0 for no effect and ±100 for the full control effect; nearly all actives have a fitted effect of over 30% in size); conditions: HEK293H PPARg-UAS-bla, beta-lactamase ratio, antagonist, 17 h; ratio activity, negative = inhibition: at 62.6 µM (top of the series) unless noted
# UniProt P37231, sequence (P37231 whole entry, looked up): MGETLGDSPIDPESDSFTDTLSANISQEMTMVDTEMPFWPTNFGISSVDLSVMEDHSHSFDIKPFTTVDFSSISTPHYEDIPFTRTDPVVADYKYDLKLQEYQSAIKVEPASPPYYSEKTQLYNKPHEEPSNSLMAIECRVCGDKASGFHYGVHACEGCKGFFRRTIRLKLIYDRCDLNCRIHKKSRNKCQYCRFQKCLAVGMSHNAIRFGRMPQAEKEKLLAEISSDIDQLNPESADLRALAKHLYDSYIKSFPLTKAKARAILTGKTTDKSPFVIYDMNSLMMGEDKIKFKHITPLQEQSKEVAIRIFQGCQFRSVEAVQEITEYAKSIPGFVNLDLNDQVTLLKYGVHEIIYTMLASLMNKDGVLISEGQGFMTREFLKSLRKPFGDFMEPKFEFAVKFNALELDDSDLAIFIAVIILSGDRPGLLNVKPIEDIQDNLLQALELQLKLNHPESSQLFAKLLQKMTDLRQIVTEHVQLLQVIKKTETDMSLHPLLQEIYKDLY
# In short: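 GeneBLAzer PPARg UAS-bla HEK293H cells, 5 h post-plating, exposed to compounds 17 h at 37C. LiveBLAzer B/G FRET substrate added for 1 h at room temperature; beta-lactamase reporter read by fluorescence intensity.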
# [15] = target: Cytochrome P450 2D6 (Homo sapiens) (UniProt P10635); assay: Cytochrome P450 Family 2 Subfamily D Member 6 (CYP2D6) small molecule antagonists: luciferase reporter qHTS assay (AID 1671196)
# UniProt P10635, sequence (P10635 whole entry, looked up): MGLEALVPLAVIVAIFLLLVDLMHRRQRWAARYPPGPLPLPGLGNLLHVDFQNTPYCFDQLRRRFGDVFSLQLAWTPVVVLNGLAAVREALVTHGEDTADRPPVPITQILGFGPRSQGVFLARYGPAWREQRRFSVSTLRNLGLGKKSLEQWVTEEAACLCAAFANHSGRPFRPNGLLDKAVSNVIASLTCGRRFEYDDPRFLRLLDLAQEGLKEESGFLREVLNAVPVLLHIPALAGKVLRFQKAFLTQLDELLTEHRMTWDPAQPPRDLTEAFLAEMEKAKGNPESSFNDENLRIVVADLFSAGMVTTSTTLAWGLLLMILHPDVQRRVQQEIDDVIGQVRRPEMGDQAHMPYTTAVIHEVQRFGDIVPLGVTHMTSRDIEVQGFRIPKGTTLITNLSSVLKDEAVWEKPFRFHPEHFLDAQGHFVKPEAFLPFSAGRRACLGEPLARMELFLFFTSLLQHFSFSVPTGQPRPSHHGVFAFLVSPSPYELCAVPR
# In short: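 Test chemicals meet CYP2D6 plus proluciferin substrate (10 min, RT); NADPH regenerating solution then drives turnover for 1 h. Detection reagent halts the reaction; luminescence measured after 20 min.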
# [16] = target: Progesterone receptor (Homo sapiens) (UniProt P06401); assay: qHTS assay to identify small molecule antagonists of the progesterone receptor (PR) signaling pathway (AID 1346795; active = well fitted inhibition curve with a large enough effect in the signal ratio in the repeat runs, not every such curve was filed as active; inconclusive = weak or mixed curves; the % refers to the signal ratio; also: % is scaled to controls: 0 for no effect and ±100 for the full control effect); conditions: PR-UAS-bla HEK293T, beta-lactamase FRET ratio, 16 h; activity change, negative = inhibition: at 92.4 µM (top of the series) unless noted
# UniProt P06401, sequence (P06401 whole entry, looked up): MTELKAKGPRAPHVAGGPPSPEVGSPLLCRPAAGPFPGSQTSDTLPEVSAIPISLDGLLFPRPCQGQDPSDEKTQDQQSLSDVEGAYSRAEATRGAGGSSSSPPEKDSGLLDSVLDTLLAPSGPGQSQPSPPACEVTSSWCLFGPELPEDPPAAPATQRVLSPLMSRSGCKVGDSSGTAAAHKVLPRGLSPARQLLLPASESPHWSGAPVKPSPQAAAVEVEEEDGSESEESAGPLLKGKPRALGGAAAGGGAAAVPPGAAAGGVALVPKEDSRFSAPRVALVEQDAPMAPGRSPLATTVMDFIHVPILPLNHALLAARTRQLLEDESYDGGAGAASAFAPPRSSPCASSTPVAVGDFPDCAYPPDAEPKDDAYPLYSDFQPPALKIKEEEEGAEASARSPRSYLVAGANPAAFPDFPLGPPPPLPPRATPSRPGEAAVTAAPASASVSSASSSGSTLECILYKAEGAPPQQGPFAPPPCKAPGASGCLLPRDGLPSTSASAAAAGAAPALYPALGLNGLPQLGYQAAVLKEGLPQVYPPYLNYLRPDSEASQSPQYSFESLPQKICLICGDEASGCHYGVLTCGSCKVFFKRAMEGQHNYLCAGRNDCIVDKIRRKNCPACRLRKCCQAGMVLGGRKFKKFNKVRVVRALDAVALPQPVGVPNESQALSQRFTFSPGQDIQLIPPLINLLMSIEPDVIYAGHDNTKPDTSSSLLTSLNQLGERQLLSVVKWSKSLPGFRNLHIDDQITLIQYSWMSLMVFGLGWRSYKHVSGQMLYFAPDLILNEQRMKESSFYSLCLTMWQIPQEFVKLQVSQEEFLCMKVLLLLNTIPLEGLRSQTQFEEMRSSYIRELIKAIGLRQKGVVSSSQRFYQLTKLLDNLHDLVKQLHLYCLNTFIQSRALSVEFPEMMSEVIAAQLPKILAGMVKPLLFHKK
# In short: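 Stimulus R5020 at 1 nM final; cells HEK293T PR-UAS-bla; medium with 2% charcoal-stripped FBS; compound exposure 16 hr at 37C, 5% CO2; detection by FRET beta-lactamase substrate, 2 hr, room temperature.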
# Tags tell the direction and shape of the fitted curve or compound fluorescence and quenching.
compound,measurement,setting,value
C=C1CC[C@H]2O[C@]2(C)CC[C@@H]2[C@@H]1CC2(C)C,Potency,[1],inactive
same,Potency,[2],inactive
CC1(C)C2=CCCC(C)(C)[C@]23CC[C@H]1C3,activation,[3],inconclusive: 11.6%
same,Potency,[1],"inconclusive: 34.7 µM [cytotoxic, partial curve, poor fit]"
same,Potency,[4],"inconclusive: 38.6 µM [inhibitor, partial curve]"
same,Potency,[5],"inconclusive: 19.3 µM [cytotoxic, full curve]"
same,Potency,[6],inconclusive: 17.2 µM [cytotoxic]
same,Potency,[7],"inconclusive: 89.4 µM [inhibitor, single point]"
same,Potency,[8],"inconclusive: 39.9 µM [inhibitor, partial curve]"
N=C(N=C(N)N)N1CCOCC1,Potency,[9],"inconclusive: 11.4 µM [rising, partial curve, poor fit]"
same,Potency,[10],inactive
same,activation,[3],inconclusive: -13.6%
same,Potency,[1],"inconclusive: 0.0015 µM [rising, full curve, poor fit]"
same,Potency,[11],inactive
O=C(O)/C=C/c1ccc(Cn2ccnc2)cc1,"ratio activity, negative = MMP loss",[12],inconclusive: -6.64% [at 39.1 µM]
same,Potency,[13],inactive
same,Potency,[9],"inconclusive: 10.1 µM [rising, partial curve, poor fit]"
same,"ratio activity, negative = inhibition",[14],inconclusive: 16.1%
same,Potency,[1],"inconclusive: 23.9 µM [rising, partial curve, poor fit]"
same,Potency,[11],inactive
same,Potency,[15],inactive
CC(=O)OC/C=C/c1ccccc1,Potency,[12],inactive
same,Potency,[13],inactive
same,Potency,[10],"inconclusive: 19.3 µM [rising, partial curve, poor fit]"
same,Potency,[1],"inconclusive: 21.9 µM [rising, partial curve, poor fit]"
same,Potency,[16],inactive
same,Potency,[5],"inconclusive: 0.864 µM [cytotoxic, single point]"
same,Potency,[7],"inconclusive: 89.4 µM [inhibitor, single point]"
same,Potency,[2],"inconclusive: 63.3 µM [inhibitor, partial curve]"
COC(=O)CSc1cc(N=c2sc(=O)n3n2CCCC3)c(F)cc1Cl,Potency,[12],"inconclusive: 61.1 µM [activator, single point]"
same,Potency,[13],"inconclusive: 68.6 µM [cytotoxic, single point]"
same,Potency,[9],"inconclusive: 68.6 µM [cytotoxic, single point]"
same,Potency,[14],inactive
same,Potency,[3],"inconclusive: 19.3 µM [falling, partial curve, poor fit]"
same,Potency,[1],"inconclusive: 49 µM [cytotoxic, partial curve, poor fit]"
same,"activity, negative = inhibition",[11],inconclusive: 18.1%
same,Potency,[6],"inconclusive: 61.1 µM [cytotoxic, single point]"
NC(=O)c1ccccc1Cl,Potency,[1],inactive
same,Potency,[11],inactive
same,Potency,[15],inactive
same,Potency,[7],"inconclusive: 79.6 µM [inhibitor, partial curve, poor fit]"

# Source: PubChem BioAssay (Tox21)
